The chains are these.
B1: Caulobacter ParB omega fusion; a variant is named by its letters at X, in order, B8GW30 (parent)
chain: MESVVVGEPGMSEGRRGLGRGLSALLGEVDAAPAQAPGEQLGGSREAPIEILQRNPDQPRRTFREEDLEDLSNSIREKGVLQPILVRPSPDTAGEYQIVAGERAWRAAQRAGLKTVPIMVRELDDLAVLEIGIIENVQRADLNVLEEALSYKVLMEKFERTQENIAQTIGKSXSHVANXMRLLXLPDEVQSYLVSGELTAXHARAIAAAADPVALAKQIIEGGLSVRETEALARKAPNLSAGKSKGGRPPRVKDTDTQALESDLSSVLGLDVSIDHRGSTGTLTITYATLEQLDDLCNRLTRGI

This note sets out measurements from a collection of fitness landscapes (doi:10.1016/j.celrep.2020.107928).

Over roughly 81,000 sequences, “one-hybrid fitness for binding parS DNA” has its median near -0.17; the highest 2% begin near 0.51. The list shows a part of the results.

The assay covers variants of B1. Description: one-hybrid fitness for binding parS DNA (scaled: cognate 1, non-cognate 0); higher = stronger binding. The settings on record: with parS DNA site. Summed up: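 On M9-minus-histidine containing 0.1 mM IPTG and 5 mM 3-AT, E. coli USO cells with a HIS3 reporter, site 19 bp from the promoter, grew 48 hours at 37°C to select Caulobacter ParB libraries randomised at four specificity codons. Plasmids from before and after were Illumina-sequenced, with three replicate libraries pooled and variants under 10 reads left out. Fitness is the log change in variant-to-wild-type read ratio, rescaled against cognate and non-cognate.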
On to QRVV, for which the “one-hybrid fitness for binding parS DNA” value is ≤ 0.2. As for RTWN, the figure is 0.461; as for THDK, ≤ 0.2. Turning to LNWW, the “one-hybrid fitness for binding parS DNA” value was ≤ 0.2. As for HQLR, the figure is ≤ 0.2; as for MWFS, ≤ 0.2; as for YCKV, ≤ 0.2. For the variant AQVS, the “one-hybrid fitness for binding parS DNA” value is ≤ 0.2. For CLYV, the “one-hybrid fitness for binding parS DNA” value was ≤ 0.2. As to QCAI, the “one-hybrid fitness for binding parS DNA” value was ≤ 0.2. For the variant EKAM, the “one-hybrid fitness for binding parS DNA” value was ≤ 0.2. Then KPTF, with ≤ 0.2; and RHLI, with ≤ 0.2; and SLIS, with ≤ 0.2. Take LKGT: the “one-hybrid fitness for binding parS DNA” value was ≤ 0.2. Then ILKG, with ≤ 0.2; and RSEK, with ≤ 0.2; and DYKA, with ≤ 0.2.

Turning to RAYS, the “one-hybrid fitness for binding parS DNA” value came out at 1.03. Take LTGA: the “one-hybrid fitness for binding parS DNA” value was ≤ 0.2. For the variant CQFT, the “one-hybrid fitness for binding parS DNA” value is ≤ 0.2.

For the variant KFLW, the “one-hybrid fitness for binding parS DNA” value is ≤ 0.2.

For RGPF, the “one-hybrid fitness for binding parS DNA” value is ≤ 0.2. As for PSGY, the figure is ≤ 0.2. As for MPIP, the figure is ≤ 0.2; as for LLSS, ≤ 0.2. On to HEIG, for which the “one-hybrid fitness for binding parS DNA” value is ≤ 0.2.

Regarding GYKA, the “one-hybrid fitness for binding parS DNA” value is ≤ 0.2.

Take RQAY: the “one-hybrid fitness for binding parS DNA” value came out at 0.444. As for HKRG, the figure is ≤ 0.2; as for YNDS, ≤ 0.2; as for MVYR, ≤ 0.2.

As for PNIV, the “one-hybrid fitness for binding parS DNA” value is ≤ 0.2.

As for PPAA, the “one-hybrid fitness for binding parS DNA” value is ≤ 0.2. Take SDKT: the “one-hybrid fitness for binding parS DNA” value was ≤ 0.2. Then GAWC, with ≤ 0.2; and GTTH, with ≤ 0.2. As for CGVM, the figure is ≤ 0.2. Take SQYE: the “one-hybrid fitness for binding parS DNA” value is ≤ 0.2.

Turning to KSRW, the “one-hybrid fitness for binding parS DNA” value is ≤ 0.2.

Take HHAC: the “one-hybrid fitness for binding parS DNA” value was ≤ 0.2. As for ARCG, the figure is ≤ 0.2; as for AQLG, ≤ 0.2; as for HFRR, ≤ 0.2. As for YSPK, the figure is ≤ 0.2; as for KRNL, ≤ 0.2; as for RRRY, 0.812. Then WDGA, with ≤ 0.2. As to PYNC, the “one-hybrid fitness for binding parS DNA” value is ≤ 0.2.

KETG: the “one-hybrid fitness for binding parS DNA” value is ≤ 0.2. As to YYYT, the “one-hybrid fitness for binding parS DNA” value was ≤ 0.2. Turning to IRGM, the “one-hybrid fitness for binding parS DNA” value is ≤ 0.2. For the variant NPLN, the “one-hybrid fitness for binding parS DNA” value is ≤ 0.2. As for QKGS, the “one-hybrid fitness for binding parS DNA” value was ≤ 0.2. Then DAHT, with ≤ 0.2; and LLPE, with ≤ 0.2. For RWDP, the “one-hybrid fitness for binding parS DNA” value was ≤ 0.2. As for QVAG, the figure is ≤ 0.2. As for KVPG, the figure is ≤ 0.2; as for CTKM, ≤ 0.2. Then WCES, with ≤ 0.2.

For the variant NSQW, the “one-hybrid fitness for binding parS DNA” value was ≤ 0.2.

In the case of TCDL, the “one-hybrid fitness for binding parS DNA” value is ≤ 0.2. As for GITA, the figure is ≤ 0.2.

With SLYV, the “one-hybrid fitness for binding parS DNA” value was ≤ 0.2. Then DPSF, with ≤ 0.2; and THRY, with ≤ 0.2. Regarding DPYC, the “one-hybrid fitness for binding parS DNA” value was ≤ 0.2. TEDF: the “one-hybrid fitness for binding parS DNA” value was ≤ 0.2. Then LKRY, with ≤ 0.2. As for ARQK, the figure is ≤ 0.2; as for CPDH, ≤ 0.2; as for VILL, ≤ 0.2. As for QRRG, the figure is ≤ 0.2; as for PRFF, ≤ 0.2; as for NTIG, ≤ 0.2. As to RTPC, the “one-hybrid fitness for binding parS DNA” value was found to be 0.625. For the variant WKRF, the “one-hybrid fitness for binding parS DNA” value was ≤ 0.2. As for RCSI, the “one-hybrid fitness for binding parS DNA” value was ≤ 0.2.

With VNDG, the “one-hybrid fitness for binding parS DNA” value is ≤ 0.2.

Regarding RVWK, the “one-hybrid fitness for binding parS DNA” value was ≤ 0.2. For the variant EMRI, the “one-hybrid fitness for binding parS DNA” value was ≤ 0.2.

Turning to QIPP, the “one-hybrid fitness for binding parS DNA” value was ≤ 0.2. As for NDMA, the figure is ≤ 0.2. As for VFDR, the figure is ≤ 0.2. As for NCNI, the figure is ≤ 0.2. With LTPC, the “one-hybrid fitness for binding parS DNA” value is ≤ 0.2. Regarding SSCT, the “one-hybrid fitness for binding parS DNA” value was ≤ 0.2. Then GTST, with ≤ 0.2. With QYGW, the “one-hybrid fitness for binding parS DNA” value is ≤ 0.2.

As to AAMP, the “one-hybrid fitness for binding parS DNA” value was ≤ 0.2. As for GWNV, the figure is ≤ 0.2; as for GIQG, ≤ 0.2; as for KTVC, ≤ 0.2. As for EEGG, the figure is ≤ 0.2; as for CDLE, ≤ 0.2. Turning to RLHA, the “one-hybrid fitness for binding parS DNA” value was determined as 0.592. Turning to PCHR, the “one-hybrid fitness for binding parS DNA” value is ≤ 0.2.

Turning to TRKI, the “one-hybrid fitness for binding parS DNA” value was ≤ 0.2. Then TEPM, with ≤ 0.2. As for IVKT, the figure is ≤ 0.2; as for MSMV, ≤ 0.2; as for QMTW, ≤ 0.2. Then DKRS, with ≤ 0.2. Consider LMGY, for which the “one-hybrid fitness for binding parS DNA” value is ≤ 0.2. Turning to RFVV, the “one-hybrid fitness for binding parS DNA” value is ≤ 0.2. Regarding DTMR, the “one-hybrid fitness for binding parS DNA” value was ≤ 0.2. In the case of SCMF, the “one-hybrid fitness for binding parS DNA” value is ≤ 0.2. With CIPS, the “one-hybrid fitness for binding parS DNA” value is ≤ 0.2.

Consider QAQH, for which the “one-hybrid fitness for binding parS DNA” value was ≤ 0.2. With DTTK, the “one-hybrid fitness for binding parS DNA” value was ≤ 0.2. As for VAYL, the figure is ≤ 0.2; as for KGFW, ≤ 0.2. Then PHIT, with ≤ 0.2. Then AKKW, with ≤ 0.2.

Regarding CMIR, the “one-hybrid fitness for binding parS DNA” value was ≤ 0.2. As for KSNW, the figure is ≤ 0.2; as for YYWF, ≤ 0.2. Then DAWY, with ≤ 0.2; and QHTI, with ≤ 0.2; and CLCW, with ≤ 0.2. As for GHRY, the figure is ≤ 0.2; as for RYYR, ≤ 0.2; as for TAVL, ≤ 0.2.

Consider RVKK, for which the “one-hybrid fitness for binding parS DNA” value was ≤ 0.2. As for VRVS, the figure is ≤ 0.2. As for HLYT, the figure is ≤ 0.2; as for VRNT, ≤ 0.2. As for MASD, the figure is ≤ 0.2; as for NYCV, ≤ 0.2; as for SPLG, ≤ 0.2. On to CEKV, for which the “one-hybrid fitness for binding parS DNA” value is ≤ 0.2. As for HTYD, the figure is ≤ 0.2. As for VYSL, the figure is ≤ 0.2; as for DSIE, ≤ 0.2. Then VNPM, with ≤ 0.2. On to DWFR, for which the “one-hybrid fitness for binding parS DNA” value is ≤ 0.2.

For CTKA, the “one-hybrid fitness for binding parS DNA” value is ≤ 0.2. As for VGFF, the figure is ≤ 0.2.

SEKT: the “one-hybrid fitness for binding parS DNA” value was ≤ 0.2.

Turning to VHKY, the “one-hybrid fitness for binding parS DNA” value was ≤ 0.2. As for CSSD, the figure is ≤ 0.2.

With VRNA, the “one-hybrid fitness for binding parS DNA” value was ≤ 0.2.

Take ATHF: the “one-hybrid fitness for binding parS DNA” value was ≤ 0.2. As to LRGY, the “one-hybrid fitness for binding parS DNA” value is ≤ 0.2. Then TNLI, with ≤ 0.2; and PTQC, with ≤ 0.2; and YVHC, with ≤ 0.2.

With MADN, the “one-hybrid fitness for binding parS DNA” value was ≤ 0.2. As to LPES, the “one-hybrid fitness for binding parS DNA” value was ≤ 0.2. As for YTLF, the “one-hybrid fitness for binding parS DNA” value was ≤ 0.2. TLMW: the “one-hybrid fitness for binding parS DNA” value is ≤ 0.2. As for QFCY, the figure is ≤ 0.2.
